In PubChem BioAssay AID588579 (National Center for Advancing Translational Sciences (NCATS), 2011):
Screen size: about 400,000 compounds; about 2,200 (0.55%) were called active. The inconclusive results got no clear call from the source; some entries with a clear call stand among them for comparison. Calls follow the shape of the dose curve; as a rule, active = well fitted inhibition curve with a large enough effect; inconclusive = small, poorly fitted or top-dose-only effect, or another doubt; inactive = no such curve, though single readings can be large or run the other way. Potencies beside an inconclusive call are fits to weak or partial responses and may not hold up.

These compounds were tested against DNA polymerase kappa (Homo sapiens) (UniProt Q9UBT6) (assay: qHTS for Inhibitors of Polymerase Kappa). Conditions: purified Pol kappa, fluorescent DNA synthesis assay, 10 min; series mostly up to 107 µM.
Outline: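 First, compounds were pin-transferred onto 10 nM Pol kappa. After 15 min at room temperature, substrate was added to 50 nM final. Fluorescence was then measured kinetically at 0 and 10 min.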
Potency is read from the fitted curve at half-maximal effect; tags tell the direction and shape of the fitted curve.

UniProt Q9UBT6, sequence (Q9UBT6 whole entry, looked up): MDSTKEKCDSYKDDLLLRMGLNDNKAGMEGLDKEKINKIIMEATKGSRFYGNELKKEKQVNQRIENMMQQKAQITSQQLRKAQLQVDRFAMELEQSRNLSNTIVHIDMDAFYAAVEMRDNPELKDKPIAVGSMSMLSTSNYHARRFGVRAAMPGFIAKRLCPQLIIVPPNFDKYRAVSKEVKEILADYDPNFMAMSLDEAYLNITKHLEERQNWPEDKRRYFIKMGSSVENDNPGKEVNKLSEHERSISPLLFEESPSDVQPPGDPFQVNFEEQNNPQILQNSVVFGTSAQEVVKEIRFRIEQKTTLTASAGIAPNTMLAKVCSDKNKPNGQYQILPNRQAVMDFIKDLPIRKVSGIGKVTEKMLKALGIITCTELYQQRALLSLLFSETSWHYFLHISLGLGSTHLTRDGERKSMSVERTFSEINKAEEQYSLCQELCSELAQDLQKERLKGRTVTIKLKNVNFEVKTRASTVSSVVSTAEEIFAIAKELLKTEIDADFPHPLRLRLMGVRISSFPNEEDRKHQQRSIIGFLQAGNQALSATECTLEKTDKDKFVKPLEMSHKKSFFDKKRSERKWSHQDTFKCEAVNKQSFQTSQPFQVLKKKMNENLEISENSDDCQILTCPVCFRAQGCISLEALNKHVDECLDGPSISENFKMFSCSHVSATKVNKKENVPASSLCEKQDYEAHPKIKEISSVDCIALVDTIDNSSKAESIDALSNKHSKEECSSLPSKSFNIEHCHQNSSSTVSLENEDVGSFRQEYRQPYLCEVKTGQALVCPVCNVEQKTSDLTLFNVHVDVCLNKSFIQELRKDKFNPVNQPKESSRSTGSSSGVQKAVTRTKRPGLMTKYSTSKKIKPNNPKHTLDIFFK

| Structure (SMILES) | Potency |
| --- | --- |
| CC(=O)COc1ccc2c(c1C)O/C(=C\c1ccco1)C2=O | inconclusive: 89.1 µM [inhibitor, single point] |
| COc1cc(/C=C/C(=O)/C=C(O)/C=C/c2ccc(O)c(OC)c2)ccc1O | inconclusive: 31.6 µM [inhibitor, partial curve] |
| CCN(CC)C(=O)[C@H]1CC(CC(=O)NCCCn2ccnc2)C(=O)N2CCc3c([nH]c4ccccc34)[C@]12C (stereo not given in full) | inactive |
| CCOc1ccc(NC(=O)/C(C#N)=C/c2cn(CC(=O)O)c3ccccc23)cc1 | inactive |
| CCOC(=O)c1sc(N2C(=O)C(O)=C(C(=O)c3ccco3)C2c2ccc(C)o2)nc1C (stereo not given) | inconclusive: 89.1 µM [inhibitor, partial curve, poor fit] |
| O=C1NC(=O)/C(=C\c2ccc(Br)o2)S1 | active: 25.1 µM |
| O=C1OC(c2ccc3ccccc3c2O)(c2ccc3ccccc3c2O)c2ccccc21 | inconclusive: 89.1 µM [inhibitor, single point] |
| COc1cccc(NC(=S)NC(=O)/C=C/c2ccco2)c1 | inconclusive: 100 µM [inhibitor, single point] |
| CCCCC(C)/C=C(C)/C=C(\C)C(=O)NC1=CC(O)(/C=C/C=C/C=C/C(=O)NC2=C(O)CCC2=O)C2OC2C1=O (stereo not given) | active: 26.7 µM |
| S=c1[nH]nc(-c2cc(-c3ccccc3)n[nH]2)n1/N=C/c1ccc(Cl)c(Cl)c1 | inconclusive: 89.1 µM [inhibitor, partial curve, poor fit] |
| O=C(Cn1cnc2scc(-c3cccc([N+](=O)[O-])c3)c2c1=O)NCc1ccco1 | active: 79.4 µM |
| COc1ccc(S(=O)(=O)Nc2ccccc2)cc1 | inactive |
| Cc1ccccc1C(=O)Nc1nc(-c2cccnc2)cs1 | inconclusive: 79.4 µM [inhibitor, partial curve, poor fit] |
| Cc1nc(S/C(=C/c2ccc(OCc3ccc(C(=O)O)cc3)cc2)C(=O)O)n[nH]1 | active: 39.8 µM |
| O=c1c2nc(Br)n([C@@H]3O[C@@H]4CO[P@@](O)(=S)O[C@H]4[C@H]3O)c2nc2[nH]c(-c3ccccc3)cn12 | inconclusive: 37.7 µM [inhibitor, partial curve, poor fit] |
| CCOc1ccc(Nc2cc(=O)n(C)c(=O)n2C)cc1 | inconclusive: 89.1 µM [inhibitor, partial curve] |
| N=c1ccn2c(n1)OC1C(O)[C@@H](CO)O[C@H]12 (stereo not given in full) | inactive |
| CC(NC(=O)COC(=O)C1CCCCC1)c1ccccc1 (stereo not given) | inactive |
| COc1ccc(NS(=O)(=O)c2cccc(C(=O)NN=Cc3ccc(O)c(OC)c3)c2)cc1 | inactive |
| O=c1nc(/C=C/c2ccc(O)c(O)c2)oc2ccccc12 | inconclusive: 79.4 µM [inhibitor, partial curve, poor fit] |
| CC[C@H](C)C(N)C(=O)O (stereo not given in full) | inactive |
| COc1cccc(NC(=O)CSc2nc(=O)[nH]c3c2CCCC3)c1 | inactive |

| Structure (SMILES) | Potency |
| --- | --- |
| CC(C)c1ccc(NS(=O)(=O)c2ccc3[nH]cc(C(=O)NC4CCCCC4)c(=O)c3c2)cc1 | inconclusive: 89.1 µM [inhibitor, single point] |
| O=[N+]([O-])c1cc(CN2CCOCC2)c2cccnc2c1O | inconclusive: 50.1 µM [inhibitor, partial curve, poor fit] |
| COc1ccc(CNC(=O)Cc2c(C)c3ccc(O)cc3oc2=O)cc1 | inactive |
| Cc1cc2oc(C(=O)Nc3cccc(-c4nc5ccccc5o4)c3)c(C)c2cc1Cl | inactive |
| O=C(/C=C\c1ccco1)Oc1cccc2cccnc12 | inconclusive: 89.1 µM [inhibitor, single point] |
| COc1ccc(CCNC(=O)c2ccc(CS(=O)(=O)c3ccc(C)cc3)o2)cc1OC | inconclusive: 89.1 µM [inhibitor, partial curve, poor fit] |
| O=c1c(Cl)c(N/N=C/c2ccc(Cl)cc2)cnn1-c1ccccc1 | inconclusive: 89.1 µM [inhibitor, single point] |
| Cn1c2ccccc2c(=O)c2cc(C#CC3(O)CCCCC3)ccc21 | inactive |
| COc1ccc2c(c1)c(=O)oc1cc(OCC(=O)N3CCc4ccccc4C3)ccc12 | inconclusive: 89.1 µM [inhibitor, single point] |
| CCOC(=O)C1=C(C)N=c2s/c(=C/c3ccc(OCC(=O)O)cc3)c(=O)n2C1c1ccc(OC)cc1OC (stereo not given) | inconclusive: 89.1 µM [inhibitor, partial curve, poor fit] |
| COc1cccc(OCc2nnc(SCC(=O)NCc3ccco3)n2CCc2ccccc2)c1 | inconclusive: 89.1 µM [inhibitor, single point] |
| COC(=O)c1ccc(-c2ccc(C(c3c(C)[nH][nH]c3=O)c3c(C)[nH][nH]c3=O)o2)cc1 | inconclusive: 89.1 µM [inhibitor, single point] |
| COc1ccc(OC)c(S(=O)(=O)N2CCC(C(=O)NC3CC3)CC2)c1 | inconclusive: 89.1 µM [inhibitor, single point] |
| Cc1onc(-c2ccccc2)c1C(=O)Nc1sc2c(c1C#N)CCC2 | inconclusive: 50.1 µM [inhibitor, partial curve, poor fit] |
| CN1CCN(c2ncncc2-c2cccnc2)CC1 | inconclusive: 0.0224 µM [inhibitor, full curve, poor fit] |
| Nc1c(C(=O)NCC2CCCO2)sc2nc3c(c(-c4ccco4)c12)CC/C3=C\c1ccco1 (stereo not given) | active: 0.708 µM |
| COc1ccccc1Nc1ccc2c(O)cc(S(=O)(=O)O)cc2c1 | active: 0.891 µM |
| Cc1c(C(=O)O)oc2c1-c1nn(Cc3ccccc3Cl)cc1CC2 | inconclusive: 100 µM [inhibitor, single point] |
| CCOC(=O)C1C(C(=O)OC)=C(C2=CCCCC2)c2ccccc2N1S(=O)(=O)C(F)(F)F (stereo not given) | inconclusive: 44.7 µM [inhibitor, partial curve, poor fit] |
| CCOC(=O)c1ccc(NC(=O)CN(C)S(=O)(=O)c2ccc(Br)s2)cc1 | inactive |
| Cc1ccc(CNC(=O)Cn2c(-c3cccs3)cc3cc(Cl)ccc32)cc1 | inactive |
| COC(=O)N/N=C/c1cc(Br)ccc1O | inactive |

| Structure (SMILES) | Potency |
| --- | --- |
| Cc1ccc(N2CCN(C(=O)C3CCN(S(=O)(=O)c4ccc5c(c4)oc(=O)n5C)CC3)CC2C)cc1 (stereo not given) | inconclusive: 100 µM [inhibitor, single point] |
| FC(F)(F)c1ccccc1-c1nc(N2CCOCC2)c2ccccc2n1 | inconclusive: 44.7 µM [inhibitor, single point] |
| NNc1nccc(Nc2ccccc2C(=O)O)n1 | inconclusive: 50.1 µM [inhibitor, partial curve, poor fit] |
| O=C(Nc1cccc([N+](=O)[O-])c1)c1cc(S(=O)(=O)N2CCOCC2)cs1 | inconclusive: 89.1 µM [inhibitor, partial curve, poor fit] |
| NS(=O)(=O)c1cc(C(=O)NC2CCSc3ccccc32)ccc1Cl (stereo not given) | active: 0.794 µM |
| COc1ccc(CNC(=O)c2cnc3sc(N4CCOCC4)nn3c2=O)cc1 | inconclusive: 89.1 µM [inhibitor, partial curve, poor fit] |
| O=C(N/N=C/C(Cl)=C/c1ccc([N+](=O)[O-])cc1)C(=O)Nc1ccccc1C(=O)O | inconclusive: 89.1 µM [inhibitor, partial curve, poor fit] |
| O=C(COC(=O)/C=C/c1ccco1)Nc1ccc(F)cc1Cl | inconclusive: 89.1 µM [inhibitor, partial curve, poor fit] |
| Cc1cc(C(=O)COC(=O)c2ccco2)c(C)n1Cc1ccco1 | inconclusive: 89.1 µM [inhibitor, partial curve, poor fit] |
| CN(C)c1ncc2nc(-c3cc(F)cc(F)c3)c(=O)n(Cc3cccs3)c2n1 | inconclusive: 44.7 µM [inhibitor, partial curve, poor fit] |
| O=C(Cc1ccccc1)N/N=C/c1ccc(OC(=O)/C=C\c2ccco2)cc1 | inconclusive: 89.1 µM [inhibitor, partial curve, poor fit] |
| Cc1ccc(/C=c2\sc3nc(-c4cccs4)nn3c2=O)o1 | inconclusive: 89.1 µM [inhibitor, single point] |
| c1ccc(-c2nc(-c3ccco3)cs2)nc1 | inconclusive: 79.4 µM [inhibitor, partial curve, poor fit] |
| CCn1c(COc2ccccc2)nnc1SCC(=O)CC(=O)Nc1ccccc1OC | inconclusive: 89.1 µM [inhibitor, single point] |
| COc1cccc(N2CC(C(=O)Nc3nnc(SCC(=O)NCC4CCCO4)s3)CC2=O)c1 (stereo not given) | inconclusive: 89.1 µM [inhibitor, single point] |
| COc1cc(NC(=O)c2nnn(CC(=O)Nc3cc(C)ccc3C)c2N)cc(OC)c1 | inactive |
| Cc1ccc([N+](=O)[O-])cc1S(=O)(=O)Nc1ccc(C(=O)N2CCN(C(=O)c3ccco3)CC2)cc1 | inconclusive: 89.1 µM [inhibitor, single point] |
| N#Cc1c(-c2ccccc2)nc(SCc2cccc(C(F)(F)F)c2)[nH]c1=O | inconclusive: 89.1 µM [inhibitor, single point] |
| O=C(NNC(=O)c1cccc(-n2cccc2)c1)c1ccc(F)cc1 | inconclusive: 100 µM [inhibitor, single point] |
| Cc1ccccc1OCC(=O)N1CCC(c2nc3ccccc3s2)CC1 | inconclusive: 100 µM [inhibitor, single point] |
| CCCCNC(=O)c1sc(=S)n2c1[nH]c(=O)c1ccc(C(=O)NCCc3ccc(OC)c(OC)c3)cc12 | inconclusive: 89.1 µM [inhibitor, single point] |
